# Source: the supplement of paper PMC8728848
# This is one part of the list.
# B1: Pbx2 (Cryptococcus neoformans) (protein)
# chain: AVSPLPSSTELVFYSQKRRRRRICSTATGSLSTPDPTRMTSDPYKRVGMRFSSVPRLLITFLSLLLLVSAAPPCVRFADYDSINQMFIDGGPGTKVLLCPNRLYRLSGPIIFTAADQEIATYGYPTGSERAVLRVEGRNTATAIQGDCRRCARVSVKNLVVDGNRKKLGRMRDFQLATGLVVLGGNEGQSIQNSWIKNPRGFTAIHIREGDKLQCSGARVEKNEIGPVGEEYDPEKDGDDPEMSPLGRPLADGVSIACRDSFIRDNTFRDNTDAAIVVYCSPGTLIHANHIFAQSLSAMAGILMVDSTPFNGDYTGTVVRSNIIDAVSRTIRVGIGIGPTVWSDDTETILTGGSVIGNGLKGRYMGYGIAAAGLKQWTIKDNWDEAKHEGRKSARCFDEPVNPDPIGLLYNRPTMEDCTVQSGFADHDFQYLVCIDGLYDKTNPPKHDPAPLAHDPSPTNAQEDNTVQQDGGDSKSKSIEQPREASDIEAEPSVEKMFSTGSEMMDDVLEHSHQRMHEVIDHLSRRIDILGAASAGKGSGDSKISEVLDPAMSSHLEKLQRKIEHLEFSLRSQIETAIQLRSAIQGWDQEMALVTDWEYDILLDVRHKLELSSYPHDQPLDPRLMRGQSYLNNEAVLVDDHSHPSLEGENLRAMSDRARLNANEEA
# Legend:
# Test in all cases: glycan array binding signal (z-score within array); higher = stronger binding
# Conditions in all cases: glycan notation: IUPAC condensed, linker removed
# [1] = target: Neu5Ac(a2-6)Gal(b1-4)GlcNAc(b1-2)Man(a1-3)[Neu5Ac(a2-3)Gal(b1-4)GlcNAc(b1-2)Man(a1-6)]Man(b1-4)GlcNAc(b1-4)GlcNAc
# Method in brief: (§1)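 From the Consortium for Functional Glycomics database, 3228 arrays were curated, keeping only those whose protein sequence was available. Binding is given as a within-array Z-score averaged across arrays sharing a protein sequence and across linkers. Negative Z-scores can be read as non-binding.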
# [2] = target: Neu5Ac(a2-6)Gal(b1-4)GlcNAc(b1-2)Man(a1-3)[Neu5Ac(a2-6)Gal(b1-4)GlcNAc(b1-2)Man(a1-6)]Man(b1-4)GlcNAc(b1-4)GlcNAc
# Method in brief: as §1
# [3] = target: Neu5Ac(a2-6)Gal(b1-4)GlcNAc(b1-2)Man(a1-3)[Neu5Ac(a2-6)Gal(b1-4)GlcNAc(b1-2)Man(a1-6)]Man(b1-4)GlcNAc(b1-4)[Fuc(a1-6)]GlcNAc
# Method in brief: as §1
# [4] = target: Neu5Ac(a2-6)Gal(b1-4)GlcNAc(b1-2)Man(a1-6)Man(b1-4)GlcNAc(b1-4)GlcNAc
# Method in brief: as §1
# [5] = target: Neu5Ac(a2-6)Gal(b1-4)GlcNAc(b1-2)Man(a1-6)[Gal(b1-4)GlcNAc(b1-2)Man(a1-3)]Man(b1-4)GlcNAc(b1-4)GlcNAc
# Method in brief: as §1
# [6] = target: Neu5Ac(a2-6)Gal(b1-4)GlcNAc(b1-2)Man(a1-6)[GlcNAc(b1-2)Man(a1-3)]Man(b1-4)GlcNAc(b1-4)GlcNAc
# Method in brief: as §1
# [7] = target: Neu5Ac(a2-6)Gal(b1-4)GlcNAc(b1-2)Man(a1-6)[Man(a1-3)]Man(b1-4)GlcNAc(b1-4)GlcNAc
# Method in brief: as §1
# [8] = target: Neu5Ac(a2-6)Gal(b1-4)GlcNAc(b1-2)[Neu5Ac(a2-6)Gal(b1-4)GlcNAc(b1-4)]Man(a1-3)[GlcNAc(b1-4)][Neu5Ac(a2-6)Gal(b1-4)GlcNAc(b1-2)[Neu5Ac(a2-6)Gal(b1-4)GlcNAc(b1-6)]Man(a1-6)]Man(b1-4)GlcNAc(b1-4)GlcNAc
# Method in brief: as §1
# [9] = target: Neu5Ac(a2-6)Gal(b1-4)GlcNAc(b1-2)[Neu5Ac(a2-6)Gal(b1-4)GlcNAc(b1-4)]Man(a1-3)[GlcNAc(b1-4)][Neu5Ac(a2-6)Gal(b1-4)GlcNAc(b1-4)Man(a1-6)]Man(b1-4)GlcNAc(b1-4)GlcNAc
# Method in brief: as §1
# [10] = target: Neu5Ac(a2-6)Gal(b1-4)GlcNAc(b1-2)[Neu5Ac(a2-6)Gal(b1-4)GlcNAc(b1-6)]Man(a1-6)[Neu5Ac(a2-6)Gal(b1-4)GlcNAc(b1-2)Man(a1-3)][GlcNAc(b1-4)]Man(b1-4)GlcNAc(b1-4)GlcNAc
# Method in brief: as §1
# [11] = target: Neu5Ac(a2-6)Gal(b1-4)GlcNAc(b1-3)Gal(b1-3)GlcNAc
# Method in brief: as §1
# [12] = target: Neu5Ac(a2-6)Gal(b1-4)GlcNAc(b1-3)Gal(b1-4)GlcNAc
# Method in brief: as §1
# [13] = target: Neu5Ac(a2-6)Gal(b1-4)GlcNAc(b1-3)Gal(b1-4)GlcNAc(b1-2)Man(a1-3)[Neu5Ac(a2-6)Gal(b1-4)GlcNAc(b1-3)Gal(b1-4)GlcNAc(b1-2)Man(a1-6)]GalNAc
# Method in brief: as §1
# [14] = target: Neu5Ac(a2-6)Gal(b1-4)GlcNAc(b1-3)Gal(b1-4)GlcNAc(b1-3)Gal(b1-4)GlcNAc
# Method in brief: as §1
# [15] = target: Neu5Ac(a2-6)Gal(b1-4)GlcNAc(b1-3)Gal(b1-4)GlcNAc(b1-3)Gal(b1-4)GlcNAc(b1-2)Man(a1-3)[Neu5Ac(a2-6)Gal(b1-4)GlcNAc(b1-3)Gal(b1-4)GlcNAc(b1-3)Gal(b1-4)GlcNAc(b1-2)Man(a1-6)]GalNAc
# Method in brief: as §1
# [16] = target: Neu5Ac(a2-6)Gal(b1-4)GlcNAc(b1-3)Gal(b1-4)GlcNAc(b1-3)GalNAc
# Method in brief: as §1
# [17] = target: Neu5Ac(a2-6)Gal(b1-4)GlcNAc(b1-3)Gal(b1-4)GlcNAc(b1-3)[Neu5Ac(a2-6)Gal(b1-4)GlcNAc(b1-3)Gal(b1-4)GlcNAc(b1-6)]GalNAc
# Method in brief: as §1
# [18] = target: Neu5Ac(a2-6)Gal(b1-4)GlcNAc(b1-3)Gal(b1-4)GlcNAc(b1-6)[Gal(b1-3)]GalNAc
# Method in brief: as §1
# [19] = target: Neu5Ac(a2-6)Gal(b1-4)GlcNAc(b1-3)Gal(b1-4)[Fuc(a1-3)]GlcNAc(b1-3)Gal(b1-4)[Fuc(a1-3)]GlcNAc
# Method in brief: as §1
# [20] = target: Neu5Ac(a2-6)Gal(b1-4)GlcNAc(b1-3)GalNAc
# Method in brief: as §1
# [21] = target: Neu5Ac(a2-6)Gal(b1-4)GlcNAc(b1-3)[Neu5Ac(a2-6)Gal(b1-4)GlcNAc(b1-6)]GalNAc
# Method in brief: as §1
# [22] = target: Neu5Ac(a2-6)Gal(b1-4)GlcNAc(b1-6)GalNAc
# Method in brief: as §1
# [23] = target: Neu5Ac(a2-6)Gal(b1-4)GlcNAc(b1-6)[Gal(b1-3)GlcNAc(b1-3)]Gal(b1-4)Glc
# Method in brief: as §1
# [24] = target: Neu5Ac(a2-6)Gal(b1-4)GlcNAc(b1-6)[Gal(b1-3)]GalNAc
# Method in brief: as §1
# [25] = target: Neu5Ac(a2-6)Gal(b1-4)GlcNAc6S
# Method in brief: as §1
# Neu5Ac(a2-6)GalNAc = target: Neu5Ac(a2-6)GalNAc
# Method in brief: as §1
# [26] = target: Neu5Ac(a2-6)GalNAc(b1-4)GlcNAc
# Method in brief: as §1
# [27] = target: Neu5Ac(a2-6)GalNAc(b1-4)GlcNAc6S
# Method in brief: as §1
# [28] = target: Neu5Ac(a2-6)GlcNAc(b1-4)GlcNAc
# Method in brief: as §1
# [29] = target: Neu5Ac(a2-6)GlcNAc(b1-4)GlcNAc(b1-4)GlcNAc
# Method in brief: as §1
binder,measurement,setting,value
B1,glycan array binding signal (z-score),[1],0.438
same,glycan array binding signal (z-score),[2],-0.312
same,glycan array binding signal (z-score),[3],-0.225
same,glycan array binding signal (z-score),[4],-0.057
same,glycan array binding signal (z-score),[5],-0.501
same,glycan array binding signal (z-score),[6],-0.278
same,glycan array binding signal (z-score),[7],0.183
same,glycan array binding signal (z-score),[8],-0.253
same,glycan array binding signal (z-score),[9],-0.236
same,glycan array binding signal (z-score),[10],0.409
same,glycan array binding signal (z-score),[11],-0.368
same,glycan array binding signal (z-score),[12],-0.548
same,glycan array binding signal (z-score),[13],-0.243
same,glycan array binding signal (z-score),[14],-0.328
same,glycan array binding signal (z-score),[15],1.26
same,glycan array binding signal (z-score),[16],-0.168
same,glycan array binding signal (z-score),[17],0.439
same,glycan array binding signal (z-score),[18],-0.121
same,glycan array binding signal (z-score),[19],-0.455
same,glycan array binding signal (z-score),[20],0.577
same,glycan array binding signal (z-score),[21],-0.054
same,glycan array binding signal (z-score),[22],0.449
same,glycan array binding signal (z-score),[23],0.145
same,glycan array binding signal (z-score),[24],-0.462
same,glycan array binding signal (z-score),[25],0.219
same,glycan array binding signal (z-score),Neu5Ac(a2-6)GalNAc,-0.487
same,glycan array binding signal (z-score),[26],-0.63
same,glycan array binding signal (z-score),[27],0.207
same,glycan array binding signal (z-score),[28],-0.484
same,glycan array binding signal (z-score),[29],-0.552
